The chains are these.
B1: tsaC; numbered along this chain (parent)
chain: MNNNLQRDAIAAAIDVLNEERVIAYPTEAVFGVGCDPDSETAVMRLLELKQRPVDKGLILIAANYEQLKPYIDDTMLTDVQRETIFSRWPGPVTFVFPAPATTPRWLTGRFDSLAVRVTDHPLVVALCQAYGKPLVSTSANLSGLPPCRTVDEVRAQFGAAFPVVPGETGGRLNPSEIRDALTGELFRQG
B2: pgsA; numbered along this chain (parent)
chain: MQFNIPTLLTLFRVILIPFFVLVFYLPVTWSPFAAALIFCVAAVTDWFDGFLARRWNQSTRFGAFLDPVADKVLVAIAMVLVTEHYHSWWVTLPAATMIAREIIISALREWMAELGKRSSVAVSWIGKVKTTAQMVALAWLLWRPNIWVEYAGIALFFVAAVLTLWSMLQYLSAARADLLDQ
B3: glnA; numbered along this chain (parent)
chain: MSAEHVLTMLNEHEVKFVDLRFTDTKGKEQHVTIPAHQVNAEFFEEGKMFDGSSIGGWKGINESDMVLMPDASTAVIDPFFADSTLIIRCDILEPGTLQGYDRDPRSIAKRAEDYLRSTGIADTVLFGPEPEFFLFDDIRFGSSISGSHVAIDDIEGAWNSSTQYEGGNKGHRPAVKGGYFPVPPVDSAQDIRSEMCLVMEQMGLVVEAHHHEVATAGQNEVATRFNTMTKKADEIQIYKYVVHNVAHRFGKTATFMPKPMFGDNGSGMHCHMSLSKNGVNLFAGDKYAGLSEQALYYIGGVIKHAKAINALANPTTNSYKRLVPGYEAPVMLAYSARNRSASIRIPVVSSPKARRIEVRFPDPAANPYLCFAALLMAGLDGIKNKIHPGEAMDKNLYDLPPEEAKEIPQVAGSLEEALNELDLDREFLKAGGVFTDEAIDAYIALRREEDDRVRMTPHPVEFELYYSV
B4: metC; numbered along this chain (parent)
chain: MADKKLDTQLVNAGRSKKYTLGAVNSVIQRASSLVFDSVEAKKHATRNRANGELFYGRRGTLTHFSLQQAMCELEGGAGCVLFPCGAAAVANSILAFIEQGDHVLMTNTAYEPSQDFCSKILSKLGVTTSWFDPLIGADIVKHLQPNTKIVFLESPGSITMEVHDVPAIVAAVRSVVPDAIIMIDNTWAAGVLFKALDFGIDVSIQAATKYLVGHSDAMIGTAVCNARCWEQLRENAYLMGQMVDADTAYITSRGLRTLGVRLRQHHESSLKVAEWLAEHPQVARVNHPALPGSKGHEFWKRDFTGSSGLFSFVLKKKLNNEELANYLDNFSLFSMAYSWGGYESLILANQPEHIAAIRPQGEIDFSGTLIRLHIGLEDVDDLIADLDAGFARIV
B5: proC; numbered along this chain (parent)
chain: MEKKIGFIGCGNMGKAILGGLIASGQVLPGQIWVYTPSPDKVAALHDQFGINAAESAQEVAQIADIIFAAVKPGIMIKVLSEITSSLNKDSLVVSIAAGVTLDQLARALGHDRKIIRAMPNTPALVNAGMTSVTPNALVTPEDTADVLNIFRCFGEAEVIAEPMIHPVVGVSGSSPAYVFMFIEAMADAAVLGGMPRAQAYKFAAQAVMGSAKMVLETGEHPGALKDMVCSPGGTTIEAVRVLEEKGFRAAVIEAMTKCMEKSEKLSKS

The source of these data is the supplement of paper PMC11876631.

± gives the standard deviation of the averaged measurements. Laboratory Escherichia coli strains with one amino-acid change in an essential protein, pooled on minimal glucose agar with carbenicillin or gentamicin at twice the control MIC (plus kanamycin and chloramphenicol for the plasmids), 48 h. Fold change of barcode share against drug-free plates; higher = less susceptible. Active = above 20 in both replicates (the paper's putatively resistant). '<' = one read or none on drug, '>' = one read or none on a drug-free plate. Shares are relative, so most strains fall below 1 when a few take over. Listed are strains with at least 15 reads on both drug-free plates, and hits; most hits rest on fewer reference reads. Replicate rank correlation about 0.5. Edits are read from barcodes. Some results are limits rather than exact numbers.

One series covers variants of B1. In words: barcode share on antibiotic plates over drug-free plates; higher = less susceptible. The note with it: with Escherichia coli (laboratory strain); antibiotic: carbenicillin; 2× MIC (3.1 µg/mL). As for the experimental part: (§1)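 A pool of E. coli strains, each edited to carry one amino-acid change in an essential protein, was grown for 48 h on minimal glucose agar with or without antibiotic; strain barcodes were sequenced; mean of two replicates.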
F97A: the “fold change of barcode share” value worked out at 0.253 ± 0.14. Still for that read-out and setting: as for F31Q, the figure is 0.208 ± 0.03.

Consider F31W, for which the “fold change of barcode share” value stood at 0.297 ± 0.17. Same read-out and setting: as for V124Q, the figure is 2.97 ± 0.36; as for V124A, 0.349 ± 0.2. Still for that read-out and setting: as for V124P, the figure is 0.249 ± 0.067; as for V124D, 0.255 ± 0.071; as for V124W, 0.402 ± 0.099.

Still in this series, the particulars now being: with Escherichia coli (laboratory strain); antibiotic: gentamicin; 2× MIC (MIC 0.45 µg/mL).
F31W: the “fold change of barcode share” value is below 0.0182. The same measure, in the same setting: as for V124Q, the figure is 0.0466 ± 0.0058; as for V124A, below 0.00461. On the same count and under the same terms, the result for V124P reads 0.00784 ± 0.0013; that for V124D, below 0.0058; that for V124W, below 0.00784.

In another series the parent is B2. The series is described as above. The note with it: with Escherichia coli (laboratory strain); antibiotic: gentamicin; 2× MIC (MIC 0.45 µg/mL). The procedure: as §1
Take I38D: the “fold change of barcode share” value is > 355 [active]. Same read-out and setting: the result for F12Q reads 0.39 ± 0.53; that for F12A, below 0.0114; that for I126P, below 0.00361. Same read-out and setting: the result for I126D reads 0.0178 ± 0.0094; that for I126A, below 0.00662. On the same count and under the same terms, as for I126Q, the figure is 0.00664 ± 0.0041. For I126W, the “fold change of barcode share” value was 0.0133 ± 0.0025. On the same count and under the same terms, as for V41Q, the figure is 0.67 ± 0.94; as for V41A, below 0.00505; as for V41W, 0.0794 ± 0.11. Still for that read-out and setting: as for F39Q, the figure is 27.7 ± 36; as for F39W, 0.0873 ± 0.042. Still for that read-out and setting: the result for V44W reads 0.275 ± 0.39; that for V44A, below 0.00364; that for V44Q, 16.8 ± 21.

Take V44P: the “fold change of barcode share” value is 244 [active].

The series is the same for the next values; noted with them: with Escherichia coli (laboratory strain); antibiotic: carbenicillin; 2× MIC (3.1 µg/mL).
Consider I126P, for which the “fold change of barcode share” value came out at 0.279 ± 0.11. Same read-out and setting: the result for I126D reads 0.332 ± 0.15.

Regarding I126A, the “fold change of barcode share” value turned out to be 0.334 ± 0.044. Still for that read-out and setting: the result for I126Q reads 0.259 ± 0.068. On the same count and under the same terms, the result for I126W reads 0.406 ± 0.036; that for V41Q, 0.351 ± 0.15. For the variant V41A, the “fold change of barcode share” value was 0.349 ± 0.097. Turning to V41W, the “fold change of barcode share” value is 0.288 ± 0.022. For F39Q, the “fold change of barcode share” value was determined as 0.154 ± 0.036. Still for that read-out and setting: as for F39W, the figure is 0.282 ± 0.045. In the case of V44W, the “fold change of barcode share” value amounted to 0.18 ± 0.039. Same read-out and setting: as for V44A, the figure is 0.315 ± 0.12; as for V44Q, 1.02 ± 1.1. Same read-out and setting: as for V44P, the figure is 0.184 ± 0.059.

The variants in another series derive from B3. The series is described as above. The note with it: with Escherichia coli (laboratory strain); antibiotic: carbenicillin; 2× MIC (3.1 µg/mL). The procedure: as §1
Consider I87A, for which the “fold change of barcode share” value was 0.697 ± 0.065. Consider L135W, for which the “fold change of barcode share” value came out at 0.439 ± 0.092.

For the variant L375Q, the “fold change of barcode share” value amounted to 0.329 ± 0.086.

L375W: the “fold change of barcode share” value turned out to be 0.227 ± 0.067. The same measure, in the same setting: as for L375D, the figure is 0.353 ± 0.21; as for L376Q, 0.445 ± 0.15; as for L376W, 0.866 ± 0.3. The same measure, in the same setting: as for F136Q, the figure is 2.12 ± 1.8.

The same series, now with this note: with Escherichia coli (laboratory strain); antibiotic: gentamicin; 2× MIC (MIC 0.45 µg/mL).
Regarding I87A, the “fold change of barcode share” value was 0.0127 ± 0.01. Take L135W: the “fold change of barcode share” value worked out at 0.0186 ± 0.014.

With L375Q, the “fold change of barcode share” value was below 0.00313. Same read-out and setting: the result for L375W reads below 0.00989; that for L375D, 0.316 ± 0.44.

As to L376Q, the “fold change of barcode share” value came out at 0.114 ± 0.16. As to L376W, the “fold change of barcode share” value is below 0.0154.

The variants in a further series derive from B4. The series is described as above. To be noted: with Escherichia coli (laboratory strain); antibiotic: carbenicillin; 2× MIC (3.1 µg/mL). The procedure: as §1
As to F311W, the “fold change of barcode share” value came to 0.291 ± 0.1.

Consider F311A, for which the “fold change of barcode share” value turned out to be 0.923 ± 0.63. F311Q: the “fold change of barcode share” value came out at 0.21 ± 0.12.

Regarding L105D, the “fold change of barcode share” value is 0.326 ± 0.16. Turning to L105W, the “fold change of barcode share” value was found to be 0.966 ± 0.72.

Take M183A: the “fold change of barcode share” value turned out to be 0.329 ± 0.023.

M183Q: the “fold change of barcode share” value is 0.663 ± 0.22. Take M183D: the “fold change of barcode share” value is > 34.8 [active].

In the case of M183P, the “fold change of barcode share” value is 1.01 ± 0.23. Same read-out and setting: the result for M106A reads 0.381 ± 0.042; that for M106Q, 0.395 ± 0.033; that for M106W, 0.579 ± 0.26. The same measure, in the same setting: as for V173W, the figure is 43.9 [active]. On the same count and under the same terms, as for V173Q, the figure is 0.978 ± 0.24. On to V173D, for which the “fold change of barcode share” value was > 39.1 [active]. On the same count and under the same terms, the result for V173A reads 0.38 ± 0.22. On the same count and under the same terms, as for I371W, the figure is 0.208 ± 0.041; as for I371Q, 0.3 ± 0.1. The same measure, in the same setting: the result for I182A reads 0.248 ± 0.097; that for I182W, 0.549 ± 0.19. With I182P, the “fold change of barcode share” value was > 26 [active]. The same measure, in the same setting: the result for I182Q reads 0.651 ± 0.49.

The series is the same for the next values; noted with them: with Escherichia coli (laboratory strain); antibiotic: gentamicin; 2× MIC (MIC 0.45 µg/mL).
With F311W, the “fold change of barcode share” value was below 0.00779. The same measure, in the same setting: the result for F311A reads 0.0349 ± 0.034.

For the variant F311Q, the “fold change of barcode share” value is below 0.00822. The same measure, in the same setting: as for L105Q, the figure is 0.0193 ± 0.015; as for L105W, below 0.00906.

With L105A, the “fold change of barcode share” value was below 0.0219. On the same count and under the same terms, as for M183A, the figure is 0.152 ± 0.024; as for M183Q, 0.00331 ± 0.00021; as for M183P, 0.0155 ± 0.011. On the same count and under the same terms, as for M106A, the figure is 0.0357 ± 0.042. Take M106Q: the “fold change of barcode share” value is below 0.00649. Still for that read-out and setting: as for M106W, the figure is below 0.0176. On to V173W, for which the “fold change of barcode share” value was found to be 0.0641 ± 0.051. On the same count and under the same terms, as for V173Q, the figure is 0.0403 ± 0.013; as for V173A, 0.00325 ± 0.0014; as for I371W, below 0.013. On the same count and under the same terms, the result for I371Q reads below 0.0117; that for I371A, below 0.0125. The same measure, in the same setting: as for I182A, the figure is 0.00903 ± 0.00017. For I182W, the “fold change of barcode share” value was 0.0155 ± 0.013. For the variant I182Q, the “fold change of barcode share” value is 0.00527 ± 0.00035.

Variants of B5 are the subject of a further series. The series is described as above. To be noted: with Escherichia coli (laboratory strain); antibiotic: carbenicillin; 2× MIC (3.1 µg/mL). The procedure:
as §1
As for V94P, the “fold change of barcode share” value stood at 0.113 ± 0.11. With V94Q, the “fold change of barcode share” value was 0.348 ± 0.2.

The series is the same for the next values; noted with them: with Escherichia coli (laboratory strain); antibiotic: gentamicin; 2× MIC (MIC 0.45 µg/mL).
As for V94Q, the “fold change of barcode share” value is below 0.0172.
